The campaign covered roughly 50,000 compounds. About 800 (1.6%) showed an effect of 50% or more. This is one part of the list.
Target: Bcl-2-like protein 10 (Homo sapiens) (UniProt Q9HD36)
Assay: Phenotype converters, Bcl-B/TR3 peptide binding displacement, primary biochemical FP (AID 1240);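 note: 0% = Bcl-B with tracer peptide and DMSO and 100% = tracer peptide lacking Bcl-B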
Details: GST-Bcl-B / FITC-TR3 peptide fluorescence polarization; stronger effect = higher value; compound at 3.75 mg/L

Sequence of UniProt Q9HD36 (Q9HD36 whole entry, looked up): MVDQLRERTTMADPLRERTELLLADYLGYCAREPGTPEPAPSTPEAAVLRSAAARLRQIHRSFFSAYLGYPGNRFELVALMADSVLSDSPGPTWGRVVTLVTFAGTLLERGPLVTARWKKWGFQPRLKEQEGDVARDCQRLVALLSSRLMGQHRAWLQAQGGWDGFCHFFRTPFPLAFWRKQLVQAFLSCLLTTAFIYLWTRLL

Structure (SMILES)	displacement [%]
O=C(Oc1cccc2ccccc12)c1ccc(Cl)cc1Cl	13.5
Cc1ccc(S(=O)(=O)Nc2ccc(S(=O)(=O)N3CCOCC3)cc2)cc1[N+](=O)[O-]	7.8
COc1ccc(/C=C/C(=O)O)cc1S(=O)(=O)Nc1cccc(C(=O)O)c1	3.4
CN(C)c1ccc(N2C(=O)C=CC2=O)cc1	8.9
Cc1c(C(=O)NS(=O)(=O)c2ccccc2Cl)c(=O)n(-c2ccccc2)n1C	8.6
COc1ccc(C(=O)Nc2cc3oc4ccccc4c3cc2OC)c(OC)c1	-5.8
Cc1ccc(S(=O)(=O)CCSc2cccc(C(=O)O)c2)cc1	-5.9
Cc1ccc(CC2S/C(=N\N=C\c3ccc(O)cc3)NC2=O)cc1 (centres undefined)	-10.2
N#CC1=C(N)Oc2n[nH]c(-c3ccccc3)c2C1CCc1ccccc1 (centres undefined)	-10.4
O=C(O)C1C2C=CC(O2)C1C(=O)N1CCN(C(c2ccccc2)c2ccccc2)CC1 (centres undefined)	-3.2
CC(=O)n1nc(C)c2c1CC(C)(C)CC2=O	-0.9
O=C(CN(c1cccc([N+](=O)[O-])c1)S(=O)(=O)c1ccccc1)NCC1CCCO1 (centres undefined)	-4.4
CCOc1ccccc1NC(=O)C(=O)NCc1ccc(F)cc1	10.2
O=C(Nc1ccc(Cl)c(C(F)(F)F)c1)c1ccc(Cl)c([N+](=O)[O-])c1	15.9
Cc1ccc(S(=O)(=O)NNC(=O)c2c[nH]c3ccccc23)cc1	-0.3
O=C1c2ccccc2/C(=N/N=C/c2ccccc2)C1C(=O)C(c1ccccc1)c1ccccc1 (centres undefined)	5.1
CCN(CC)CCCOc1ccc(I)cc1	2.6
Cc1ccc(N2C(=O)CC(NCc3ccc(F)cc3)C2=O)cc1 (centres undefined)	2.8
Ic1ccc(-c2csc(Nc3ccc(Oc4ccccc4)cc3)n2)cc1	-8.2
O=[N+]([O-])c1ccc(/C=N/Nc2ccccn2)o1	0.6
CN1CCN(CC(O)COc2ccc(C(C)(C)C)cc2)CC1 (centres undefined)	-4.7
O=C(O)c1c(F)c(F)c(F)c(F)c1-c1ccc(Cl)cc1	11.8
COc1ccc(CNC(=O)CN(Cc2ccccc2)S(=O)(=O)c2ccccc2)cc1	4.5

Structure (SMILES)	displacement [%]
C=CCCC(=O)Nc1ccc(Br)cn1	-2.3
O=C(/C=C/c1ccc(-c2ccccc2)o1)c1ccco1	1.1
O=C(c1ccc(S(=O)(=O)N2CCOCC2)cc1)N1CCCc2ccccc21	28
CC(/C=C/c1ccccc1)=N\N=C1/NC(=O)CS1	-10.9
COc1ccc(/C=N/NC(=O)CSCC(=O)Nc2ccccc2)cc1OC	-2.7
O=C1N=c2ccccc2=C1c1sc(Nc2cccc(O)c2)nc1O	26.1
COc1cccc(NC(=S)NC(NC(=O)Cc2ccccc2)C(Cl)(Cl)Cl)c1 (centres undefined)	-6.2
Cc1cc(/C=N/O)c(C)n1-c1ccccc1	11.4
CC(NC(=O)NC(=O)c1cccc([N+](=O)[O-])c1)C1CC1 (centres undefined)	7.6
CC(C)(C)c1ccccc1OCC(O)CN1CCN(Cc2ccccc2)CC1 (centres undefined)	-5.3
O=[N+]([O-])c1ccc(/C=N\Nc2ccccc2[N+](=O)[O-])o1	-14.2
C=CCN1C(=O)/C(=C\c2ccc(OCC(=O)O)cc2)C(=O)NC1=S	0.1
CC(=O)Nc1ccc(Nc2nc(-c3ccc(Br)cc3)cs2)cc1	14.5
CN(C)C=Nc1c(C(=O)NCc2ccccc2)c2n(c1C#N)CCC2	-12.5
CN(C)/C=C/C=C1C(=O)OC(C)(C)OC1=O	0.3
Cc1ccc(N2C(=O)C3C(C2=O)C3(c2ccccc2)c2ccccc2)c(C)c1 (centres undefined)	-13.6
COc1ccc(C2OCC3(CO)C(C)C=C(C)C2C3C)cc1 (centres undefined)	-2.4
O=C(c1ccc(Br)cc1)N(Cc1ccccc1)c1cccc([N+](=O)[O-])c1	-11.1
CCN1/C(=C/C(C)=O)Sc2ccccc21	19.9
O=c1/c(=C/c2cccc([N+](=O)[O-])c2)sc2nc3cc(Br)cnc3n12	-2.3
COc1ccc(-n2c(NNC(C)=O)nc3sc4c(c3c2=O)CCCC4)cc1	1.1
CC(C(=O)O)N1C(=O)/C(=C\c2ccc(F)cc2)SC1=S (centres undefined)	8.1
COc1cc(/C=C2/SC(=S)N(CC(=O)O)C2=O)ccc1OC(=O)c1cccc(C)c1	14.9

Structure (SMILES)	displacement [%]
CCOc1ccc(N(CC(=O)Nc2ccccc2Br)S(C)(=O)=O)cc1	-0.1
CCCOc1ccc(C(=O)Nc2cc(Cl)cc(Cl)c2)cc1	9.6
Cc1cc(C)n(-c2cc(-c3ccccc3)nc(-c3ccccc3)n2)n1	5.8
CSc1nnc2c(n1)OC1(CCCCC1)Nc1ccccc1-2	3.1
CN1CCc2c(sc3c2C(=O)NC(c2ccc4ccccc4c2)N3)C1 (centres undefined)	83
CCOc1ccc(N2C(=O)NC(=O)/C(=C/c3ccc(-c4ccccc4[N+](=O)[O-])o3)C2=O)cc1	3.8
N#C/C(=C/c1ccc(-c2ccc(S(N)(=O)=O)cc2)o1)C(=O)Nc1ccccc1	-0.4
COc1ccc(C2/C(=C(\O)c3ccccc3)C(=O)C(=O)N2c2cccc(C)n2)cc1 (centres undefined)	10.4
CN(Cc1ccccc1)C(=O)c1cc2nc(-c3ccc(Cl)cc3)cc(C(F)(F)F)n2n1	-8.1
COc1ccc(N(CC(=O)Nc2ccccc2Br)S(C)(=O)=O)c(OC)c1	-1.2
O=C(Nc1sc2c(c1C(=O)N1CCCCC1)CCCCC2)c1ccncc1	13.5
COc1ccc(CSc2nc3sc4c(c3c(=O)n2Cc2ccccc2)CC(C)(C)OC4)cc1	-6.8
Cc1ccc2c(c1)NC(c1ccc3c(c1)OCO3)C1=C(CC(c3ccccc3)CC1=O)N2 (centres undefined)	-6
COc1ccc(Br)cc1C(=O)N1CCN(c2ccc([N+](=O)[O-])cc2Cl)CC1	5
CCOc1ccc(N/C(C)=C/C(=S)Nc2ccccc2)cc1	-14.7
COc1ccccc1OCCCN1CCCC1	4.2
CC1(C)CC(=O)c2sc(NC(=O)c3ccccc3Cl)nc2C1	-12.5
COc1ccc(CCN2C(=O)CC(C(=O)O)SC2=Nc2cccc(C(F)(F)F)c2)cc1OC (centres undefined)	-8.3
CCOc1ccc(NC2OC(=O)c3c2ccc(OC)c3OC)cc1 (centres undefined)	6.5
CC(=O)NC(c1ccc(C)cc1)c1c(OC(C)=O)ccc2ccccc12 (centres undefined)	5.2
O=C(NCCOc1cccc2ccccc12)Nc1cccc2ccccc12	-15.1
COc1ccc(C2/C(=C(/O)c3ccccc3)C(=O)C(=O)N2c2cccc(OC)c2)cc1 (centres undefined)	4.1
CC(C)c1ccccc1OCC(=O)Nc1cccc(C(F)(F)F)c1	13.1

Reference: PubChem BioAssay AID1240 (Sanford-Burnham Center for Chemical Genomics, 2008)
